A collection of fitness landscapes (doi:10.1016/j.celrep.2020.107928)
Over roughly 81,000 sequences, “one-hybrid fitness for binding parS DNA” has its median near -0.17; the highest 2% begin near 0.51. This is one part of the list.

B1: Caulobacter ParB omega fusion; a variant is named by its letters at X, in order, B8GW30 (parent)
chain: MESVVVGEPGMSEGRRGLGRGLSALLGEVDAAPAQAPGEQLGGSREAPIEILQRNPDQPRRTFREEDLEDLSNSIREKGVLQPILVRPSPDTAGEYQIVAGERAWRAAQRAGLKTVPIMVRELDDLAVLEIGIIENVQRADLNVLEEALSYKVLMEKFERTQENIAQTIGKSXSHVANXMRLLXLPDEVQSYLVSGELTAXHARAIAAAADPVALAKQIIEGGLSVRETEALARKAPNLSAGKSKGGRPPRVKDTDTQALESDLSSVLGLDVSIDHRGSTGTLTITYATLEQLDDLCNRLTRGI

Variants of: B1
Test: one-hybrid fitness for binding parS DNA (scaled: cognate 1, non-cognate 0); higher = stronger binding
Conditions: with parS DNA site
Outline: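 Fitness here means the log change in variant-to-wild-type read ratio between plasmids sequenced before and after selection. That scale was set so cognate equals 1 and non-cognate equals 0. The selection was a bacterial one-hybrid screen of Caulobacter ParB libraries, four specificity codons randomised, in E. coli USO carrying a HIS3 reporter with the site 19 bp from the promoter, grown 48 hours at 37°C on M9-minus-histidine with 0.1 mM IPTG and 5 mM 3-AT.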

Variant	one-hybrid fitness for binding parS DNA
HHLW	≤ 0.2
SVQD	≤ 0.2
QVCV	≤ 0.2
FGSS	≤ 0.2
SYHG	≤ 0.2
SDRI	≤ 0.2
IVNL	≤ 0.2
PGKM	≤ 0.2
AISI	≤ 0.2
ESGW	≤ 0.2
QRYT	≤ 0.2
RTNA	0.722
MWPE	≤ 0.2
SRHC	≤ 0.2
TSNM	≤ 0.2
LAVS	≤ 0.2
KIMF	≤ 0.2
ICCR	≤ 0.2
KSLF	≤ 0.2
DHRT	≤ 0.2
KGTG	≤ 0.2
NGSP	≤ 0.2
TMCI	≤ 0.2
SLFG	≤ 0.2
PHIY	≤ 0.2
SSKF	≤ 0.2

Variant	one-hybrid fitness for binding parS DNA
YQVV	≤ 0.2
DQQS	≤ 0.2
CIKC	≤ 0.2
RVDD	≤ 0.2
QLKK	≤ 0.2
NVHT	≤ 0.2
PRLH	≤ 0.2
RLWN	0.443
RNVA	0.312
FNTM	≤ 0.2
ACNI	≤ 0.2
NDFR	≤ 0.2
QPNP	≤ 0.2
LLWN	≤ 0.2
QPHE	≤ 0.2
KSTV	≤ 0.2
RVQN	0.417
RQTL	≤ 0.2
YMAR	≤ 0.2
GPVK	≤ 0.2
AMQN	≤ 0.2
WPHG	≤ 0.2
LNGG	≤ 0.2
WIMS	≤ 0.2
VHSW	≤ 0.2
EFYK	≤ 0.2

Variant	one-hybrid fitness for binding parS DNA
AYRE	≤ 0.2
RFRL	≤ 0.2
MPFS	≤ 0.2
GRQW	≤ 0.2
GGSD	≤ 0.2
TSPQ	≤ 0.2
PNEL	≤ 0.2
IIVL	≤ 0.2
GAQI	≤ 0.2
VAIR	≤ 0.2
WSLR	≤ 0.2
DGPW	≤ 0.2
LVYF	≤ 0.2
NGSL	≤ 0.2
RIAV	≤ 0.2
NVVV	≤ 0.2
SWRT	≤ 0.2
YGAI	≤ 0.2
PYLY	≤ 0.2
SPQP	≤ 0.2
YFRC	≤ 0.2
DLGP	≤ 0.2
FHRS	≤ 0.2
IYLV	≤ 0.2
MQGD	≤ 0.2
KMAS	≤ 0.2

Variant	one-hybrid fitness for binding parS DNA
KAPR	≤ 0.2
CLLG	≤ 0.2
GWRC	≤ 0.2
EHTD	≤ 0.2
VGDS	≤ 0.2
SLII	≤ 0.2
DCYG	≤ 0.2
TTNN	≤ 0.2
NCKS	≤ 0.2
AQHS	≤ 0.2
AFSW	≤ 0.2
MHHD	≤ 0.2
VLWL	≤ 0.2
WQSC	≤ 0.2
MKPA	≤ 0.2
YQST	≤ 0.2
HPRA	≤ 0.2
VYSK	≤ 0.2
VIWC	≤ 0.2
QWAV	≤ 0.2
GPLR	≤ 0.2
PFSR	≤ 0.2
AHGN	≤ 0.2
HCTF	≤ 0.2
VTQT	≤ 0.2
TSVS	≤ 0.2

Variant	one-hybrid fitness for binding parS DNA
PCCY	≤ 0.2
RKAL	≤ 0.2
QSCC	≤ 0.2
PECT	≤ 0.2
HFLT	≤ 0.2
HHEG	≤ 0.2
YLSQ	≤ 0.2
VYKP	≤ 0.2
HAGM	≤ 0.2
ASML	≤ 0.2
QHPC	≤ 0.2
VSMS	≤ 0.2
GVGT	≤ 0.2
TSTV	≤ 0.2
ACHK	≤ 0.2
ALYC	≤ 0.2
HFKT	≤ 0.2
SNGV	0.233
RKIN	0.322
QSTA	≤ 0.2
RPYD	≤ 0.2
PKMN	≤ 0.2
KEHT	≤ 0.2
WYVV	≤ 0.2
FVRM	≤ 0.2
QLQY	≤ 0.2

Variant	one-hybrid fitness for binding parS DNA
RHEI	≤ 0.2
CTRF	≤ 0.2
MRER	≤ 0.2
KRSV	≤ 0.2
DHKT	≤ 0.2
CIER	≤ 0.2
SIRH	≤ 0.2
DQPM	≤ 0.2
RPNL	≤ 0.2
SPST	≤ 0.2
STRR	≤ 0.2
PSHL	≤ 0.2
AFNS	≤ 0.2
SPNT	≤ 0.2
HALV	≤ 0.2
ARSN	≤ 0.2
QCCC	≤ 0.2
RGCF	≤ 0.2
EKER	≤ 0.2
TAIT	≤ 0.2
PDTE	≤ 0.2
VYSN	≤ 0.2
VATG	≤ 0.2
